Data reported in ChEMBL document CHEMBL1201862, “PubChem BioAssay data set” (2004).
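How tested: cells in 96-well plates exposed to compound for 48 hours at five concentrations. The concentration for 50% growth inhibition is given as GI50.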 The source made the active and inactive calls. No stated cut-off is given here; in the data, active = GI50 up to about 1.1 µM and inactive = higher.

The compounds below were run on NCI-H322M (assay: DTP human tumour cell line panel, 48 h).

SMILES	GI50
CN(C)CCCc1c2ccccc2nc2ccc(Cl)cc12	inactive: 11.7 µM
CC(=O)Oc1cc(OC(C)=O)c2c(C)cc(=O)oc2c1	inactive: > 100 µM
COC(=O)c1sc(=O)sc1SCc1cccc(CSc2sc(=O)sc2C(=O)OC)c1	inactive: > 100 µM
Cc1cccc(C)c1NC(=O)CCCC(=O)C(C#N)c1ccccc1 (stereo not given)	inactive: > 10 µM
C[C@H](O)CCC(=O)c1ccoc1	inactive: > 100 µM
O=C(CC1(O)C(=O)Nc2c(Cl)ccc(Cl)c21)c1ccc(Cl)cc1Cl (stereo not given)	inactive: 26.7 µM
Cc1cc(=O)oc2cc(OC(=O)N(C)C)c(Cl)cc12	inactive: > 100 µM
CNC(=O)Nn1c(SC)nc2ccccc21	inactive: > 100 µM
N#Cc1cccc(/C=N/C23CC4CC(CC(C4)C2)C3)c1	inactive: > 100 µM
COc1ccc2[nH]c3c(C)c4ccnc(NCCCN(C)CCCNc5ccc([N+](=O)[O-])c6[nH]c7ccccc7c(=O)c56)c4c(C)c3c2c1	active: 0.564 µM
C=CCOC(=O)N1[C@H]2C#C/C=C\C#C[C@]3(O)C(=O)C[C@H](C)[C@]24O[C@]43C2=CC(=O)C=CC21OC (stereo not given in full)	inactive: 23.1 µM
CCCN(CCCCN1C(=O)c2ccccc2C1=O)CC1COc2ccccc2O1 (stereo not given)	inactive: > 100 µM
COCOCC1CCCN1CN1CCC[C@H]1COCOC (stereo not given in full)	inactive: > 100 µM
Cc1cc(C)nc(NS(=O)(=O)c2ccc(Nc3nnc(/C=C/c4c(O)ccc5ccccc45)c(=O)n3N)cc2)n1	inactive: 71.3 µM
CC(C)N1CN(C(C(=O)N[C@@H]2C(=O)N3C2SC(C)(C)C3C(=O)O)c2ccc(O)cc2)CSC1=S (stereo not given in full)	inactive: > 100 µM
COc1ccc(-c2c(C#N)c(O)n(C3OC(CO)C(O)C(O)C3O)c(=S)c2C#N)cc1 (stereo not given)	inactive: > 100 µM
COc1ccc2c(C=O)c3n(c(=O)c2c1OC)CCc1cc2c(cc1-3)OCO2	inactive: > 100 µM
CCOC(=O)CC(=O)NC1CC2CCC1(C)C2(C)C (stereo not given)	inactive: > 100 µM

SMILES	GI50
COc1cc2c(OC)c(c1)CCCC1=CC(=O)C=C(CCC2)C1=O	inactive: 44.4 µM
Nc1nccc(NCC2(CO)CC(OCc3ccccc3)C2)n1 (stereo not given)	inactive: > 100 µM
CC(C)CCC[C@@H](C)[C@H]1CCC2C3CC=C4C[C@@H](Oc5c6ccccc6nc6ccccc56)CCC4C3CCC21 (stereo not given in full)	inactive: > 50 µM
OCC1CCCCCCCCCCC12SCCCS2 (stereo not given)	inactive: > 100 µM
O=C1N[C@@H](COc2ccc(/C=N/c3ccc(CCc4ccc(/N=C/c5ccc(OC[C@@H]6COC(=O)N6)cc5)cc4)cc3)cc2)CO1	inactive: > 100 µM
COc1ccc(C(=O)/C=C/c2ccc(OCC#N)cc2)cc1	inactive: 38.6 µM
C/C=C/C(C/C=C(\C)CO[Si](C)(C)C(C)(C)C)O[Si](C)(C)C(C)(C)C (stereo not given)	inactive: > 100 µM
O=[N+]([O-])c1cccc2nc3ccccc3c(NCCC[N+]3([O-])CCOCC3)c12	active: 0.226 µM
Nc1nc2ncn(CC(O)CO)c2c(=S)[nH]1 (stereo not given)	inactive: > 100 µM
C[N+]12C=CC=C1C(N1CCCC1)c1scc(-c3ccccc3)c12 (stereo not given)	inactive: > 100 µM
CCc1c(C#N)c(=O)[nH]c(=O)n1CCN1CCN(C(=O)NCCCCCCNC(=O)N2CCN(CCn3c(CC)c(C#N)c(=O)[nH]c3=O)CC2)CC1	inactive: > 100 µM
C=C(CCOC)CCC1CCCCC/C1=N\N(C)C (stereo not given)	inactive: > 100 µM
O=S(O)CCCCSSCCCCSSCCCCS(=O)O	inactive: 47.6 µM
c1cc(C2O[C@H]3CCCN3[C@@H]2c2ccncc2)ccn1 (stereo not given in full)	inactive: > 100 µM
CCCCc1ccc(Nc2nc(SC)c3[nH]cnc3n2)cc1	inactive: > 88.3 µM
Cn1ccc(C(=O)NCCCCCNC(=O)c2ccn(C)c(=O)c2O)c(O)c1=O	inactive: > 100 µM
CC(=O)O[C@H]1CC2C(C3CCC(C(C)CCC(N)=O)[C@]31C)[C@H](OC(C)=O)C[C@@H]1CC3(CC[C@]21C)OOC1(CC[C@]2(C)C4C[C@H](OC(C)=O)[C@]5(C)C(C(C)CCC(N)=O)CCC5C4[C@H](OC(C)=O)C[C@@H]2C1)OO3 (stereo not given in full)	inactive: 2 µM
